For this assay, the system named is NCI-H322M lung. As to the kind of experiment: NCI tumour cell line growth inhibition, 48 h.

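Tested at 5 concentrations; 48 h exposure; 96-well plates; endpoints linearly interpolated, else capped at highest concentration. Here, GI50 denotes the concentration required for 50% inhibition of growth. At the TGI there is no net growth.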

`COc1cc(/C=N/n2cnc3oc(-c4ccccc4)cc3c2=N)cc(CN2CCCCC2)c1O`: the GI50 was 1.79 µM and the TGI was found to be 3.4 µM.

`C/C=C\C(=O)O[C@@H]1CC2O[C@@H]3C=C(C)C(=O)C[C@]3(C)[C@]1(C)[C@]21CO1`: the GI50 is 0.7 µM and the TGI came out at 2.53 µM.

Turning to `CN1CCN(Cc2ccc(NC(=O)c3cncc(C#Cc4cnc5ccc(NCCCO)nn45)c3)cc2C(F)(F)F)CC1`, the GI50 was 0.154 µM and the TGI came out at 0.572 µM.

As to `CC[C@@H](CO)Nc1ccc2ncc(C#Cc3cncc(C(=O)Nc4ccc(CN5CCN(C)CC5)c(C(F)(F)F)c4)c3)n2n1`, the GI50 is 0.155 µM and the TGI was found to be 0.583 µM.

With `Fc1ccc(-c2cc3nc(C(Cl)Cl)nc(-c4ccc(F)cc4)n3n2)cc1`, the GI50 was 0.909 µM and the TGI was found to be 2.89 µM.
